Among all 220,000 compounds or so, about 5,700 (2.6%) were called active. Inconclusive results, whose numbers are uncertain, are shown with a selection of clear calls. Calls follow the shape of the dose curve; as a rule, active = well fitted inhibition curve with a large enough effect; inconclusive = small, poorly fitted or top-dose-only effect; inactive = no such curve, though single readings can be large or run the other way. Potencies beside an inconclusive call are fits to weak or partial responses and may not hold up.
target: Lysine-specific demethylase 5B (Homo sapiens) (UniProt Q9UGL1); assay: Primary screen for KDM5B Histone Demethylases FDH-coupled qHTS; settings: FDH-coupled NADH fluorescence (FDH is formaldehyde dehydrogenase); activity change, negative = inhibition: at 57.7 µM (top of the series) unless noted; also: nearly all actives have a fitted effect of over 70% in size; as to activity change, negative = inhibition: 0% is about no effect
UniProt Q9UGL1, sequence (Q9UGL1 whole entry, looked up): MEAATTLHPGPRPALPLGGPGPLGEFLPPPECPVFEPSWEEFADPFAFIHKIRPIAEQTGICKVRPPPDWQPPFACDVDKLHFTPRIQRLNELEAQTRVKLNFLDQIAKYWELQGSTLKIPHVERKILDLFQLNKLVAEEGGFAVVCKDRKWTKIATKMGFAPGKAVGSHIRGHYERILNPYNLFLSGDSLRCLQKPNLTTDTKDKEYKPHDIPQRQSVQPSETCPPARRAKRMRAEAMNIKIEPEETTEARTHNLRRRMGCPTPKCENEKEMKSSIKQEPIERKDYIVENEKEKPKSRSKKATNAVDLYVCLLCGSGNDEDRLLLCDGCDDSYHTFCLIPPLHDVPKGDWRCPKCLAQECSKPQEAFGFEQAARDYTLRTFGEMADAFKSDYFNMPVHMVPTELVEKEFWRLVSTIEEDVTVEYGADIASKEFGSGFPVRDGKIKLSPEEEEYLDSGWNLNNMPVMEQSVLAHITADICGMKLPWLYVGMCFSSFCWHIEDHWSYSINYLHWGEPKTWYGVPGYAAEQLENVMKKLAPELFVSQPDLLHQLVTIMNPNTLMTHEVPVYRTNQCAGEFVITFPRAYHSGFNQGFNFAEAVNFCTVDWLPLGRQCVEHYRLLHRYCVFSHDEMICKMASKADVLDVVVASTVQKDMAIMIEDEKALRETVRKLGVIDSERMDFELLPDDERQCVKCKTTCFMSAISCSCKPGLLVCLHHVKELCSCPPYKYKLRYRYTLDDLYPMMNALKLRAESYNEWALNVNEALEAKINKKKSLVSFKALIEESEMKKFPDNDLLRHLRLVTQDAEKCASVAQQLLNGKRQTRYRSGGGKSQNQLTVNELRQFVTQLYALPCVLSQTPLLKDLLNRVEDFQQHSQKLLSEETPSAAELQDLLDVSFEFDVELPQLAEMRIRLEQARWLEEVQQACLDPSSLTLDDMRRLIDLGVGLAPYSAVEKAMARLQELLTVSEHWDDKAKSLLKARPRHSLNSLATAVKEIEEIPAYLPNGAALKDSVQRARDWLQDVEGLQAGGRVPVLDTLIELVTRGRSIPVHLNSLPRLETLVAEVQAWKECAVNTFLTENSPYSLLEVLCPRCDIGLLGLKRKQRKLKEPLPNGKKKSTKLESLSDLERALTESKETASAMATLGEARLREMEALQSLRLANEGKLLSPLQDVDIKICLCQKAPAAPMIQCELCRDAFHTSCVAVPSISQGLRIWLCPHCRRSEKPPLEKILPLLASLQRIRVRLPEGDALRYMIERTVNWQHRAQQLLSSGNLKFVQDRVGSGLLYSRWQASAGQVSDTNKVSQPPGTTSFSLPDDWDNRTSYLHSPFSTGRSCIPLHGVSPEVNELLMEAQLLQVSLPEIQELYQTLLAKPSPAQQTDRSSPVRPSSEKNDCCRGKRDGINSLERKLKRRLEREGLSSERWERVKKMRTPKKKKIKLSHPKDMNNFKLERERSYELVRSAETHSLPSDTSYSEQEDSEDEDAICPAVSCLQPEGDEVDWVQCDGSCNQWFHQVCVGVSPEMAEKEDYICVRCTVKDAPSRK
How it was run: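 Compound dilutions met 200 nM (final) KDM5BΔAP for 10 min at room temperature before substrate addition. The substrate mix held 12.5 µM H3K4me3 with cofactors 25 µM α-ketoglutarate and 50 µM Fe²⁺. NADH signal gain over 30 min defined activity.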
Potency is read from the fitted curve at half-maximal effect; tags tell the direction and shape of the fitted curve.

| SMILES | Potency | activity change, negative = inhibition |
| --- | --- | --- |
| O=C(Cn1nc(-c2ccco2)ccc1=O)Nc1ccccc1 | inconclusive: 20 µM [inhibitor, partial curve, poor fit] |  |
| COc1ccc2oc(=O)c(-c3ccc(OCC(=O)N4CCN(C=O)CC4)cc3)cc2c1 | inconclusive: 28.2 µM [inhibitor, partial curve, poor fit] |  |
| COc1cc(/C=C(\C#N)c2nc3ccccc3[nH]2)ccc1OCc1ccccc1F | inconclusive: 1.12 µM [inhibitor, full curve, poor fit] |  |
| Cc1ccc(CC(=O)NC(C)C(=O)N2CCN(c3ccccn3)CC2)cc1 (configuration not stated) | active: 28.2 µM |  |
| CCC1=C(C(=O)OC)C(c2ccc(C)cc2C)N2C(CC(=O)NCC3CCCO3)=CSC2=N1 (configuration not stated) | inconclusive: 25.1 µM [inhibitor, single point] |  |
| CC(C)CCN1C(=O)CC[C@]2(C(=O)NCc3ccncc3)CCCC[C@@H]12 |  | inactive: -8.81% |
| CCCOc1ccc(NC(=O)CCC)c2cccnc12 |  | inactive: -0.1% |
| Cn1cnc(S(=O)(=O)N2CCCC(C(=O)NCc3ccc(Cl)cc3)C2)c1 (configuration not stated) | inconclusive: 25.1 µM [inhibitor, partial curve, poor fit] |  |
| COCCOC1CCOC2(CCN(C(=O)Cc3cccc(C)c3)CC2)C1 (configuration not stated) |  | inactive: 9.87% |
| CCN(Cc1ccccc1)C(=O)c1cc(-c2ccccc2)n[nH]1 |  | inconclusive: -30.7% [inhibitor] |
| CN(C)c1ccc(-c2nnnn2[C@H]2CO[C@H]3[C@@H]2OC[C@H]3OC(=O)Nc2cccc(C#N)c2)cc1 | active: 35.5 µM |  |
| CC(C)CCNC(=O)c1ccc2c(c1)NC(=O)C(C(C)C)N2 (configuration not stated) | inconclusive: 14.1 µM [inhibitor, partial curve, poor fit] |  |
| Cc1c(C)n(Cc2ccccc2)c2ccc(C(=O)N3CCN(c4ccc(F)cc4)CC3)cc12 | inconclusive: 17.8 µM [inhibitor, partial curve, poor fit] |  |
| O=C(Cc1ccccc1)Nc1ccc(NC(=O)c2ccco2)cc1 | inconclusive: 44.7 µM [inhibitor, partial curve, poor fit] |  |
| CC(=O)c1sc(-c2cccc(Br)c2)nc1C |  | inactive: 2.58% |
| CCOC(=O)N1CCN(c2nc(-c3ccccc3)c3cc(C)ccc3n2)CC1 | inconclusive: 31.6 µM [inhibitor, single point] |  |
| O=c1ccc(-c2cc(-c3cccc(C(F)(F)F)c3)cn3cncc23)c[nH]1 | inconclusive: 35.5 µM [inhibitor, partial curve, poor fit] |  |
| CCn1c2ccccc2c2cc(CN3CCN(Cc4cc(OC)c(O)c(OC)c4)CC3)ccc21 | inconclusive: 1.78 µM [inhibitor, full curve, poor fit] |  |
| Cc1cc(C(=O)NC(C)c2ccc(F)cc2F)c2cnn(C(C)C)c2n1 (configuration not stated) | inconclusive: 28.2 µM [inhibitor, partial curve, poor fit] |  |
| CCCCN(C(=O)c1cc(CC)c(C)s1)c1c(N)n(CCC)c(=O)[nH]c1=O |  | inactive: 10.7% |
| O=C(NCCc1ccc(Cl)cc1)c1cc(-c2cccc(C(F)(F)F)c2)c2nncn2n1 | active: 79.4 µM |  |

| SMILES | Potency | activity change, negative = inhibition |
| --- | --- | --- |
| COc1cc2[nH]c(=O)n(Cc3ccc(C(=O)N4CCN(c5ccc(Cl)cc5)CC4)cc3)c(=O)c2cc1OC | inconclusive: 0.891 µM [inhibitor, full curve, poor fit] |  |
| Cn1ccc2c(C(=O)NCC3CCOCC3)nc(-c3cccc(N4CCOCC4)c3)cc21 | inconclusive: 35.5 µM [inhibitor, single point] |  |
| COc1ccc(CNC(=O)CCS(=O)(=O)c2cc(Br)cc3c2N(C(C)=O)C(C)C3)cc1 (configuration not stated) | inconclusive: 1.12 µM [inhibitor, full curve, poor fit] |  |
| COc1ccc(CN2CCc3nc(C4CC4)nc(-c4ccc(O)cc4)c3CC2)cc1 | inconclusive: 39.8 µM [inhibitor, partial curve, poor fit] |  |
| Cc1ccc2c(C)c(C(=O)N3CCOCC(CO)C3)oc2c1 (configuration not stated) |  | inactive: 8.31% |
| COC(=O)c1ccc(COC(=O)/C=C/c2cccs2)o1 |  | inactive: 20.5% |
| COc1cccc(C2C(C(=O)Nc3ccc(Cl)cc3)=C(C)Nc3nc4ccccc4n32)c1OC (configuration not stated) | inconclusive: 15.8 µM [inhibitor, partial curve, poor fit] |  |
| CCCCNC(=O)c1c(-c2ccccc2)c(-c2ccccc2)nn(C)c1=O |  | inactive: -9.3% |
| COc1ccc(S(=O)(=O)NC[C@H]2O[C@@H](CO)[C@@H](O)[C@H]2N2CCc3ccccc3C2)cc1 | inconclusive: 22.4 µM [inhibitor, partial curve] |  |
| c1coc(C(CNC2CCCC2)N2CCCC2)c1 (configuration not stated) |  | inactive: 2.3% |
| CCOC(CNC(=O)c1cc2c(=O)n(CC)c3ccccc3c2s1)OCC | inconclusive: 25.1 µM [inhibitor, partial curve, poor fit] |  |
| CNC(=O)CCn1ncc2cc(OC3CCc4cccc(-c5ccc(OC)cc5)c43)ccc21 (configuration not stated) | inconclusive: 35.5 µM [inhibitor, single point] |  |
| CCCn1ccc2sc(C)c(C(=O)N3CCN(C(C)C)CC3)c2c1=O | inconclusive: 28.2 µM [inhibitor, single point] |  |
| CC(=O)c1ccc(N2CCN(S(=O)(=O)c3ccc(-c4cc(C)[nH]n4)s3)CC2)cc1 | inconclusive: 39.8 µM [inhibitor, single point] |  |
| C=CCNC(=S)N/N=C1/CCC=C1CCCCC |  | inactive: -20.6% |
| Cc1cc(=O)oc2cc3c(cc12)CCC1(CCC(C)CC1)O3 (configuration not stated) | inconclusive: 5.62 µM [inhibitor, single point] |  |
| Cc1ccc(OCCN2CCC(CO)CC2)cc1 |  | inactive: 10.9% |
| O=C(c1ccccc1Cl)N1CCC(c2n[nH]c(=O)n2-c2ccccc2)CC1 |  | inactive: -14.8% |
| CCN1c2cc(C(=O)Nc3cccc(Cl)c3C)ccc2C(=O)N2CCCCCC21 (configuration not stated) | inconclusive: 35.5 µM [inhibitor, partial curve, poor fit] |  |
| CN(Cc1ccc(N2CCCCC2)cc1)C(=O)CCC[C@H]1NC[C@@H]2C[C@H]1CN(Cc1ccccc1)C2 | inconclusive: 14.1 µM [inhibitor, single point] |  |
| CCOc1ccccc1-c1cc(C(=O)O)c2ccccc2n1 | inconclusive: 35.5 µM [inhibitor, single point] |  |
